Measured values as given in PubChem BioAssay (NCATS).
Some of the results follow. The main result of the screen is listed elsewhere. These columns were measured beside it and carry no call. Most of these compounds were active or inconclusive in the main read-out, so they are no random draw. The note in brackets gives the kind of curve behind each potency; many fits are weak.

Experiment: Cell-based coincidence reporter assay to measure PMP22 gene transcription in S16 Pmp22-F2sN cells - Confirmatory screen (AID 1508646)
Settings: S16 Schwann cells Pmp22-F2sN, dual luciferase, 24 h
Method in brief: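 S16 Schwann cells carrying a bioluminescent reporter in the Pmp22 3' UTR (Pmp22-F2sN) were treated with compounds for 24 h at 37C, then lysed; FLuc and then NLuc luminescence were read sequentially with a dual-luciferase kit on a CCD imager.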

[1] = measured here: FLuc reporter channel
[2] = measured here: NLuc reporter channel
Tags describe the fitted curve by direction and shape.

Structure (SMILES) | AC50 [1] | AC50 [2]
Cc1ccc(C)c(Nc2nn3c(=O)c4ccc(C(=O)NCCc5ccccc5)cc4nc3s2)c1 | 9.68 µM [falling, full curve] | 12.2 µM [falling, full curve]
CCCN(C(=O)Cn1nc(Cc2ccncc2)c2ccccc2c1=O)c1ccccc1C | 17.2 µM [falling, partial curve, poor fit] | 15.3 µM [falling, partial curve, poor fit]
Cc1ccc(C(=O)Nc2ccc(S(=O)(=O)N3CCC(c4nc5ccccc5s4)CC3)cc2)cc1 | 13.7 µM [falling, full curve] | 15.3 µM [falling, partial curve]
CCc1ccccc1NC(=O)CSc1ncc(S(=O)(=O)c2ccc(C(C)C)cc2)c(N)n1 | 43.2 µM [falling, partial curve, poor fit] | 38.5 µM [falling, single point]
Cc1ccc(C)c(Nc2nn3c(=O)c4ccc(C(=O)NCc5cccs5)cc4nc3s2)c1 | 19.3 µM [falling, partial curve] | 21.7 µM [falling, partial curve]
N=c1n(CCN2CCCCC2)c2ccccc2n1CC(O)COc1ccc(Cl)cc1Cl (centres undefined) | 19.3 µM [falling, partial curve] | 21.7 µM [falling, partial curve]
CCOC(=O)c1c(C)oc2nc(C)nc(NCCc3ccc(OCC)cc3)c12 | 12.2 µM [falling, full curve, poor fit] | 12.2 µM [falling, full curve]
COC(=O)c1ccccc1NC(=O)CSc1c2c(nc3ccc(Cl)cc13)CCCC2 | 24.3 µM [falling, partial curve] | 24.3 µM [falling, partial curve]
O=C(CSc1c2c(nc3ccc(Cl)cc13)CCCC2)N1CCN(c2cccc(Cl)c2)CC1 | 13.7 µM [falling, full curve] | 21.7 µM [falling, partial curve]
Cc1cccc(CS(=O)(=O)c2ncc(Cl)c(C(=O)Nc3nc4ccc(F)cc4s3)n2)c1 | 9.68 µM [falling, partial curve] | 10.9 µM [falling, partial curve]
COc1ccc(-c2noc(CSc3nnc(-c4ccncc4)n3-c3ccccc3)n2)cc1 | 6.85 µM [falling, full curve] | 5.44 µM [falling, full curve]
O=C(CSc1nc2c([nH]c3ccccc32)c(=O)n1-c1cccc(Cl)c1)c1ccccc1 | 12.2 µM [falling, partial curve] | 12.2 µM [falling, partial curve]
COc1ccc(NC(=O)c2cc3c(s2)-c2c(C)cccc2OC3)cc1Cl | 21.7 µM [falling, partial curve] | 24.3 µM [falling, partial curve]
COC(=O)c1c(-c2ccc(Cl)cc2)noc1N1CCN(c2ccc(C)cc2C)CC1 | 19.3 µM [falling, partial curve] | 19.3 µM [falling, partial curve]
CCC(Sc1nncn2c1cc1occc12)C(=O)Nc1ccc(C)c(Cl)c1 (centres undefined) | 15.3 µM [falling, partial curve] | 27.3 µM [falling, partial curve]
COC(=O)c1c(-c2ccc(Cl)cc2)noc1N1CCN(c2cc(C)ccc2C)CC1 | 17.2 µM [falling, partial curve] | 17.2 µM [falling, partial curve]
CC(=O)N1CCc2c(sc(NC(=O)CSc3ccccc3)c2-c2nc3ccccc3s2)C1 | 10.9 µM [falling, partial curve] | 15.3 µM [falling, partial curve]
Cc1cccc(Nc2c3c(nc4nncn24)CCC3)c1C | 0.485 µM [falling, full curve] | 0.243 µM [falling, full curve]
O=C(NCCCN1CCN(c2ccc(F)cc2)CC1)c1cc2c(Cl)nc3ccccc3c2s1 | 17.2 µM [falling, partial curve] | 19.3 µM [falling, partial curve, poor fit]
COc1ccc(-c2onc(C)c2C)cc1S(=O)(=O)NCc1ccc(C)o1 | 15.3 µM [falling, single point] | 15.3 µM [falling, single point]
CCOC(=O)c1c(NC(=O)c2nc(S(C)(=O)=O)ncc2Cl)sc(C(C)=O)c1C | 3.43 µM [falling, full curve] | 3.43 µM [falling, full curve]

Structure (SMILES) | AC50 [1] | AC50 [2]
Cc1ccc(/C=C/c2onc(C)c2S(=O)(=O)N2CCC(C(=O)NCC(C)c3ccccc3)CC2)cc1 (centres undefined) | 24.3 µM [falling, single point] | 24.3 µM [falling, partial curve, poor fit]
CCOCCCn1c(=N)c(C(=O)NCC2CCCO2)cc2c(=O)n3cccc(C)c3nc21 (centres undefined) | 19.3 µM [falling, partial curve, poor fit] | 27.3 µM [falling, partial curve, poor fit]
COc1ccc(C)cc1NC(=O)c1nnn(CC(=O)Nc2c(C)cccc2C)c1N | 24.3 µM [falling, single point] | 1.22 µM [rising, full curve, poor fit]
COc1ccc(Cn2c(SCC(N)=O)nc3c(sc4ccccc43)c2=O)cc1 | 43.2 µM [falling, single point] | 38.5 µM [falling, single point]
COc1ccccc1NC(=O)Cn1nnc(C(=O)NCc2cccs2)c1N | 3.06 µM [falling, partial curve] | 3.06 µM [falling, partial curve]
COc1ccc(OCC(=O)NCc2ccc3c(c2)CCN3C(=O)c2cccc(C)c2)cc1 | 10.9 µM [falling, full curve] | 10.9 µM [falling, full curve, poor fit]
CCN1C(=O)c2ccccc2S(=O)c2ccc(C(=O)N3CCN(c4cccc(Cl)c4)CC3)cc21 (centres undefined) | 24.3 µM [falling, partial curve, poor fit] | 24.3 µM [falling, partial curve]
O=S(=O)(c1ccc(Cl)cc1)c1nnn2c1nc(N1CCCCC1)c1sccc12 | 34.3 µM [falling, single point] | 43.2 µM [falling, single point]
CC1=Nc2cc(C(=O)NC3CCCC3)ccc2Sc2ccc(C)cc21 | 3.85 µM [falling, full curve, poor fit] | 2.43 µM [falling, full curve]
Cc1c(Cl)cccc1Nc1nn2c(=O)c3ccc(C(=O)NCCc4ccccc4)cc3nc2s1 | 13.7 µM [falling, full curve] | 15.3 µM [falling, partial curve]
COc1ccc(Br)cc1CC1C(=O)Nc2ccccc21 (centres undefined) | 0.0077 µM [falling, full curve, poor fit] | 0.122 µM [falling, full curve, poor fit]
O=C(Nc1ccc(Br)c2cccnc12)c1cccc2ccccc12 | 17.2 µM [falling, partial curve, poor fit] | 30.6 µM [falling, partial curve]
CCOC(=O)COc1ccc(C)cc1C(=O)c1ccn2nc(-c3ccc(F)cc3)cc2n1 | 8.62 µM [falling, full curve, poor fit] | 19.3 µM [falling, partial curve]
CCOCCCn1c(=N)c(C(=O)NC(C)c2ccccc2)cc2c(=O)n3cccc(C)c3nc21 (centres undefined) | 21.7 µM [falling, partial curve] | 21.7 µM [falling, partial curve]
CCOC(=O)c1cc2c(=O)n3ccccc3nc2n(C(C)C)c1=NC(=O)c1c(-c2c(F)cccc2Cl)noc1C | 8.62 µM [falling, partial curve, poor fit] | 19.3 µM [falling, partial curve]
Cn1cc(CN(C(=O)Nc2ccccc2)C2CCCCC2)c2ccccc21 | 10.9 µM [falling, full curve, poor fit] | 13.7 µM [falling, partial curve, poor fit]
CCN(CC)c1ccc(NC(=O)CCCN2C(=O)C(c3ccccc3)Oc3cccnc32)c(C)c1 (centres undefined) | 6.85 µM [falling, partial curve] | 10.9 µM [falling, partial curve, poor fit]
COc1ccc(Nc2ncc(C(=O)N3CCN(c4cccc(Cl)c4)CC3)c3ccccc23)cc1 | 12.2 µM [falling, full curve, poor fit] | 15.3 µM [falling, partial curve]
COc1ccc(C)cc1NC(=O)Cn1c(=O)cc(C)c2c(C)nn(C)c21 | 12.2 µM [falling, full curve] | 15.3 µM [falling, partial curve]
Cn1nc(C(=O)NCc2ccc(Cl)cc2)c2c1-c1ccccc1S(=O)(=O)C2 | 27.3 µM [falling, single point] | 34.3 µM [falling, single point]
O=C(CCc1nnc2n(Cc3ccccc3Cl)c(=O)c3ccccc3n12)Nc1ccccc1 | 21.7 µM [falling, partial curve, poor fit] | 19.3 µM [falling, partial curve, poor fit]
